The list shows a part of the results. The full chains were built here from the parent and the listed change. Values near 0.05 are background.
B1: TEV protease; numbered along this chain (parent)
chain: MGESLFKGPRDYNPISSSICHLTNESDGHTTSLYGIGFGPFIITNKHLFRRNNGTLVVQSLHGVFKVKDTTTLQQHLVDGRDMIIIRMPKDFPPFPQKLKFREPQREERICLVTTNFQTKSMSSMVSDTSCTFPSGDGIFWKHWIQTKDGQCGSPLVSTRDGFIVGIHSASNFTNTNNYFTSVPKNFMELLTNQEAQQWVSGWRLNADSVLWGGHKVFMVKPEEPFQPVKEATQL

Variants of: B1
Test: raw area under fraction-flipped curve 0-4 h after induction (AUC4h, not background-subtracted), DNA-recorder readout of cleavage of the substrate (dimensionless); higher = more cleavage of the substrate by the protease variant
Conditions: temperature: 34 °C; time window: 0-4 h after rhamnose induction
Method: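 In vivo DNA recorder in E. coli TOP10(DE3) ΔrhaA at 34 °C. Each TEVp single-site mutant (parent TEVp 0) is paired with a single-site variant of the 7-mer TEVs (canonical ENLYFQ|S). The substrate sits between flexible linkers in a Bxb1-sfGFP-TEVs-SsrA fusion, so cleavage stabilises Bxb1 and speeds flipping of a recombination array, read by NGS. The value is the raw area under the fraction-flipped curve over 0-4 h after rhamnose induction (AUC4h), with ≥20 reads per time point. It is not background-subtracted; inactive controls average about 0.047.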
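Further: Bxb1 expression induced with 0.2% (w/v) L-rhamnose at OD600 near 0.5, cultures sampled hourly, flipped fraction per protease–substrate barcode pair counted by paired-end Illumina sequencing.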

Variant	area with substrate ENLYAQS	area with substrate ENLYCQS	area with substrate ENLYDQS	area with substrate ENLYEQS	area with substrate ENLYGQS	area with substrate ENLYNQS	area with substrate ENLYPQS	area with substrate ENLYQQS	area with substrate ENLYSQS	area with substrate ENLYYQS	area with substrate ENLYHQS	area with substrate ENLYIQS	area with substrate ENLYKQS	area with substrate ENLYLQS	area with substrate ENLYMQS	area with substrate ENLYTQS	area with substrate ENLYVQS	area with substrate ENLYWQS	area with substrate ENLYRQS
MGESLFKGPRDYNPISSSICHLTNESDGHTTSLYGIGFGPFIITNKHLFRRNNGTLVVQSLHGVFKVKDTTTLQQHLVDGRDMIIIRMPKDFPPFPQKLKFREPQREERICLVTTNFQTKSMSSMVSDTSCTFPSGDGIFWKHWIQTKDGQCGSPLVSTRDGFIVGIHHASNFTNTNNYFTSVPKNFMELLTNQEAQQWVSGWRLNADSVLWGGHKVFMVKPEEPFQPVKEATQL [S169H]	0.0696	0.0434	0.0513	0.0552	0.0636	0.0524	0.0566	0.0521	0.0609	0.0522	–	–	–	–	–	–	–	–	–
MGESLFKGPRDYNPISSSICHLTNESDGHTMSLYGIGFGPFIITNKHLFRRNNGTLVVQSLHGVFKVKDTTTLQQHLVDGRDMIIIRMPKDFPPFPQKLKFREPQREERICLVTTNFQTKSMSSMVSDTSCTFPSGDGIFWKHWIQTKDGQCGSPLVSTRDGFIVGIHSASNFTNTNNYFTSVPKNFMELLTNQEAQQWVSGWRLNADSVLWGGHKVFMVKPEEPFQPVKEATQL [T31M]	0.0698	–	0.0587	0.0853	–	–	–	0.0602	–	–	0.0712	0.11	0.0616	0.0811	0.0832	0.13	0.0657	0.0747	–
MGESLFKGPRDYNPISSSICHLTNESDGHTTSLYGIGFGPFIITNKHLFRRNNGTLVVQSLHGVFKVKDTTTLQQHLVDGRDMIIIRMPKDFPPFPQKLKFREPQREERICLVTTNFQTKSMSSFVSDTSCTFPSGDGIFWKHWIQTKDGQCGSPLVSTRDGFIVGIHSASNFTNTNNYFTSVPKNFMELLTNQEAQQWVSGWRLNADSVLWGGHKVFMVKPEEPFQPVKEATQL [M125F]	0.0751	0.0743	0.0522	0.0923	0.0778	0.0619	0.0884	0.0702	0.068	–	0.094	0.139	0.0394	–	0.0745	–	–	0.0778	0.0887
MGESLFKGPRDYNPISSSICHLTNESDGHTTSLYGIGFGPFIITNKHLFRRNNGTLVVQSLHGVFKVKDTTTLQQHLVDGRDMIIIRMPKDFPPFPQKLKFREPQREERICLVTTNFQTKSMSSMVSDTSCTFPSGDGIFWKHWIQTKDGQCGSPLHSTRDGFIVGIHSASNFTNTNNYFTSVPKNFMELLTNQEAQQWVSGWRLNADSVLWGGHKVFMVKPEEPFQPVKEATQL [V157H]	0.0519	0.0494	0.0366	0.0551	0.0434	0.0513	0.0413	0.0583	0.0502	0.0646	0.0443	0.0771	0.0492	0.0471	0.0877	–	0.0541	0.025	–
MGESLFKGPRDYNPISSSICHLTNESDGHTTSLYGIGFGPFIITNKHLFRRNNGTLVVQSLHGVFKVKDTTTLQQHLVDGRDMIIIRMPKDFPPFPQKLKFREPQREERICLVTTNFQNKSMSSMVSDTSCTFPSGDGIFWKHWIQTKDGQCGSPLVSTRDGFIVGIHSASNFTNTNNYFTSVPKNFMELLTNQEAQQWVSGWRLNADSVLWGGHKVFMVKPEEPFQPVKEATQL [T119N]	0.0657	–	0.0799	0.0488	0.0707	0.115	–	–	–	0.0695	0.0656	–	–	0.118	–	–	0.0986	–	–
MGESLFKGPRDYNPISSSICHLTNESDGHTTSLYGIGFGPFIITNKHLFRRNNGTLVVQSLHGVFKVKDTTTLQQHLVDGRDMIIIRMPKDFPPFPQKLKFREPQREERICLVTTNFQTKSMSSMVSDTSCTFPSGDGIFWKHWIQTKDGQCGSPLVSTRDGFIVGIHSASNFTNTNLYFTSVPKNFMELLTNQEAQQWVSGWRLNADSVLWGGHKVFMVKPEEPFQPVKEATQL [N178L]	0.0777	–	–	0.0618	–	–	0.0741	–	–	–	–	0.136	–	–	0.0961	–	–	0.112	0.0582
MGESLFKGPRDYNPISSSICHLTNESDGHTTSLYGIGFGPFIITNKHLFRRNNGTLVVQSLHGVFKVKDTTTLQQHLVDGRDMIIIRMPKDFPPFPQKLKFREPQREERICLVTTNFQTKSMSSMVSDTSCTFPSGDGIFWKHWIQTKDGQCGSPLVSTRDGFIVGPHSASNFTNTNNYFTSVPKNFMELLTNQEAQQWVSGWRLNADSVLWGGHKVFMVKPEEPFQPVKEATQL [I167P]	0.0927	–	0.0537	0.0655	–	–	0.0505	–	0.0392	0.0431	0.0671	0.0626	0.053	–	–	–	0.062	0.0567	0.054
MGESLFKGPRDYNPISSSICHLTNESDGHTTSLYGIGFGPFIITNKHLFRRNNGTLVVQSLHGVFKVKDTTTLQQHLVDGRDMIIIRMPKDFPPFPQKLKFREPQREERICLVTTNFQTKSMSSMVSDTSCTFPSGDGIFWKHWIQTKDGQCGSPLVSTRDGFIVGIHSASNFTNTNNYFTSVPKNFMELNTNQEAQQWVSGWRLNADSVLWGGHKVFMVKPEEPFQPVKEATQL [L191N]	0.0667	0.0286	0.0521	0.0558	0.0461	0.0623	0.0476	0.054	0.0483	0.039	–	–	0.0617	0.047	0.0422	–	0.0654	0.0821	0.0488
MGESLFKGPRDYNPISSSICHLTNESDGHTTSLYGIGFGPFIITNKHLFRRNNGTLVVQSLHGVFKVKDTTTLQQHLVDGRDMIIIRMPKDFPPFPQKLKFREPQREERICLVTTNFQTKSMSSMVSDTSCTFPSGDGIFWKHWIQTKDGQCGSPLVSTRDGFIVGIHSASNFTNTNNYFTSVPKNFMELLTNQEAQQWVSGWRLDADSVLWGGHKVFMVKPEEPFQPVKEATQL [N206D]	0.0975	–	0.067	0.0731	0.0701	0.0729	0.0625	–	0.0823	0.0696	0.0628	–	0.061	–	0.103	0.0907	0.104	0.127	0.0606

— the supplement of paper PMC12217912
